{"source": "the BET-seq Pho4 binding data (Le et al. 2018)", "note": "This is one part of the list. Values were computed here from the reads of four pooled replicates and scatter widely."}
{"target": "T1, Pho4 (S. cerevisiae) (UniProt P07270)", "T1 sequence": "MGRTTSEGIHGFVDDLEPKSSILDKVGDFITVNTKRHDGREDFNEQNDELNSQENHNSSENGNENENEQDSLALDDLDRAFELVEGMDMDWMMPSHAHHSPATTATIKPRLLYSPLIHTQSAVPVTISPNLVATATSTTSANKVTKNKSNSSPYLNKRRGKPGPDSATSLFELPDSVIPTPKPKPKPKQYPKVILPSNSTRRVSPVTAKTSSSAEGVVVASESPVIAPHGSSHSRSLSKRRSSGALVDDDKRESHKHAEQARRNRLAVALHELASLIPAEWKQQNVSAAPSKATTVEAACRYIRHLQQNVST", "assay": "relative binding free energy (BET-seq); higher = weaker binding", "settings": "reference: library average", "units": {"relative binding free energy": "kcal/mol"}}
{"sequence": "GGGGTCACGTGGTAGT", "relative binding free energy": 0.24}
{"sequence": "AGTTGCACGTGGAAGT", "relative binding free energy": 0.05}
{"sequence": "GAGTACACGTGGATGA", "relative binding free energy": 0.18}
{"sequence": "GTTTTCACGTGTGGGC", "relative binding free energy": 0.34}
{"sequence": "ATGTGCACGTGTGAAT", "relative binding free energy": 0.07}
{"sequence": "CTGTTCACGTGATGTA", "relative binding free energy": 0.34}
{"sequence": "TAAATCACGTGGGCTT", "relative binding free energy": -0.02}
{"sequence": "AAAATCACGTGTGTGG", "relative binding free energy": 0.18}
{"sequence": "TTGAACACGTGAAGAT", "relative binding free energy": 0.26}
{"sequence": "TTCTTCACGTGATGTT", "relative binding free energy": 0.34}
{"sequence": "GTTGTCACGTGGCGCT", "relative binding free energy": 0.02}
{"sequence": "CTGGTCACGTGGGCAT", "relative binding free energy": -0.18}
{"sequence": "AATTTCACGTGGGATT", "relative binding free energy": 0.16}
{"sequence": "TTGGGCACGTGGTGTG", "relative binding free energy": -0.12}
{"sequence": "GTAGTCACGTGGTCCG", "relative binding free energy": 0.05}
{"sequence": "TTTGCCACGTGTAGTT", "relative binding free energy": 0.03}
{"sequence": "GTTTGCACGTGCAGGA", "relative binding free energy": 0.06}
{"sequence": "TGCTCCACGTGGAGGG", "relative binding free energy": 0.05}
{"sequence": "TAAGTCACGTGGCCGT", "relative binding free energy": -0.01}
{"sequence": "TTGAACACGTGTAGCT", "relative binding free energy": 0.01}
{"sequence": "GTTCACACGTGGTGAG", "relative binding free energy": -0.03}
{"sequence": "GTATCCACGTGATGTG", "relative binding free energy": 0.23}
{"sequence": "TGTGCCACGTGATATT", "relative binding free energy": 0}
{"sequence": "AGTTACACGTGATTGC", "relative binding free energy": 0.25}
{"sequence": "TAGTACACGTGTTAAT", "relative binding free energy": -0.01}
{"sequence": "TACTGCACGTGTGCGG", "relative binding free energy": -0.01}
{"sequence": "TTTTACACGTGGGTAC", "relative binding free energy": -0.02}
{"sequence": "TTATGCACGTGGTATC", "relative binding free energy": -0.1}
{"sequence": "TTGTGCACGTGTATAT", "relative binding free energy": 0.15}
{"sequence": "AGGAACACGTGAGGCT", "relative binding free energy": 0.46}
{"sequence": "GGATTCACGTGTAGGC", "relative binding free energy": 0.22}
{"sequence": "TGGTGCACGTGCTCGA", "relative binding free energy": -0.05}
{"sequence": "CTAGGCACGTGTTAAT", "relative binding free energy": -0.13}
{"sequence": "AATGACACGTGTGGGA", "relative binding free energy": 0.1}
{"sequence": "GTGTACACGTGGGATC", "relative binding free energy": -0.11}
{"sequence": "CTGGACACGTGCGTGG", "relative binding free energy": -0.16}
{"sequence": "AGTGGCACGTGCGAGA", "relative binding free energy": -0.13}
{"sequence": "ATGAGCACGTGTTGTC", "relative binding free energy": -0.17}
{"sequence": "GGGGTCACGTGATACT", "relative binding free energy": 0.17}
{"sequence": "GGGTTCACGTGTCTGG", "relative binding free energy": 0.29}
{"sequence": "CTGGTCACGTGATTAG", "relative binding free energy": 0.2}
{"sequence": "TTGTACACGTGGTCTG", "relative binding free energy": -0.08}
{"sequence": "CATTGCACGTGAGGGA", "relative binding free energy": 0.22}
{"sequence": "GTGGTCACGTGCTGTG", "relative binding free energy": 0.11}
{"sequence": "GTATTCACGTGGGAAG", "relative binding free energy": 0.23}
{"sequence": "TGTTGCACGTGCGACG", "relative binding free energy": 0.01}
{"sequence": "TATGGCACGTGGATGT", "relative binding free energy": -0.18}
{"sequence": "CCGTGCACGTGGGGGA", "relative binding free energy": -0.28}
{"sequence": "GGTGGCACGTGACGTG", "relative binding free energy": 0.08}
{"sequence": "TATGGCACGTGGGTTT", "relative binding free energy": -0.11}
{"sequence": "GTAGGCACGTGTGATC", "relative binding free energy": 0.1}
{"sequence": "GGGGACACGTGAGTGC", "relative binding free energy": 0.21}
{"sequence": "ATCGTCACGTGTTTAA", "relative binding free energy": 0.03}
{"sequence": "TAGTTCACGTGGAGTG", "relative binding free energy": 0.22}
{"sequence": "TTGTTCACGTGTTTCG", "relative binding free energy": 0.3}
{"sequence": "TGCTGCACGTGGCGTA", "relative binding free energy": -0.1}
{"sequence": "TCAAACACGTGTGGTT", "relative binding free energy": 0.01}
{"sequence": "GTAGTCACGTGTGTGT", "relative binding free energy": 0.3}
{"sequence": "ATGTGCACGTGGGGGA", "relative binding free energy": -0.06}
{"sequence": "GGATTCACGTGTTGCG", "relative binding free energy": 0.31}
{"sequence": "TAGTTCACGTGTGTAA", "relative binding free energy": 0.17}
{"sequence": "CATGTCACGTGGTGGA", "relative binding free energy": 0.05}
{"sequence": "TTGGGCACGTGATAGC", "relative binding free energy": -0.13}
{"sequence": "GTATACACGTGTAGTG", "relative binding free energy": 0.01}
{"sequence": "TAAAGCACGTGGATGT", "relative binding free energy": -0.03}
{"sequence": "TTTACCACGTGTAGGA", "relative binding free energy": 0.02}
{"sequence": "TCGGGCACGTGAGGCA", "relative binding free energy": 0.07}
{"sequence": "TTGTACACGTGGTCAG", "relative binding free energy": 0.02}
{"sequence": "AACGGCACGTGGGGTA", "relative binding free energy": -0.29}
{"sequence": "TCTGGCACGTGATGGT", "relative binding free energy": -0.03}
{"sequence": "TTTGGCACGTGAGCAA", "relative binding free energy": 0.04}
{"sequence": "TCGGTCACGTGTAAAT", "relative binding free energy": 0.36}
{"sequence": "GGGGGCACGTGGAGTA", "relative binding free energy": -0.16}
{"sequence": "GGGCTCACGTGTAGTT", "relative binding free energy": 0.35}
{"sequence": "TTGAGCACGTGGTTTA", "relative binding free energy": -0.21}
{"sequence": "GTGCGCACGTGTGTGG", "relative binding free energy": -0.07}
{"sequence": "CTGGACACGTGGGGAG", "relative binding free energy": -0.08}
{"sequence": "TGTTGCACGTGAGCAG", "relative binding free energy": 0.24}
{"sequence": "AGTTACACGTGGCGGT", "relative binding free energy": 0.15}
{"sequence": "TACTACACGTGATGGT", "relative binding free energy": 0.24}
{"sequence": "TGCGGCACGTGCTGGA", "relative binding free energy": -0.05}
{"sequence": "TGTGGCACGTGAGTTG", "relative binding free energy": 0.17}
{"sequence": "TCTGGCACGTGAGGTC", "relative binding free energy": 0.17}
{"sequence": "GGGTTCACGTGACATA", "relative binding free energy": 0.38}
{"sequence": "TTGGTCACGTGGGGTA", "relative binding free energy": 0.05}
{"sequence": "CGTTGCACGTGAGGTA", "relative binding free energy": 0.16}
{"sequence": "AAAGTCACGTGCGTTT", "relative binding free energy": 0.15}
{"sequence": "TACATCACGTGGTGTA", "relative binding free energy": -0.09}
{"sequence": "TGGAGCACGTGTAGTG", "relative binding free energy": 0.02}
{"sequence": "GCATTCACGTGCGGGG", "relative binding free energy": 0.26}
{"sequence": "ATGTTCACGTGTACGG", "relative binding free energy": 0.16}
{"sequence": "ATCTTCACGTGGGTCT", "relative binding free energy": 0.2}
{"sequence": "TGCAACACGTGAGTTG", "relative binding free energy": 0.16}
{"sequence": "TTCTACACGTGGGCTG", "relative binding free energy": -0.04}
{"sequence": "TAACTCACGTGGATTT", "relative binding free energy": 0.3}
{"sequence": "GAGCGCACGTGGGAGA", "relative binding free energy": 0.04}
{"sequence": "GGTTGCACGTGAGTAA", "relative binding free energy": 0.29}
{"sequence": "GGTACCACGTGATGTT", "relative binding free energy": 0.02}
{"sequence": "TTTTTCACGTGTTAGA", "relative binding free energy": 0.3}
{"sequence": "ATAATCACGTGTCTTG", "relative binding free energy": 0.13}
{"sequence": "TATTTCACGTGTCCGT", "relative binding free energy": 0.21}
{"sequence": "CGTGTCACGTGAGGAG", "relative binding free energy": 0.16}
{"sequence": "TTTGACACGTGCAGGG", "relative binding free energy": -0.06}
{"sequence": "TTTGTCACGTGCCTAT", "relative binding free energy": 0}
{"sequence": "TTGTCCACGTGGGTGG", "relative binding free energy": -0.13}
{"sequence": "ATGTACACGTGGGTAA", "relative binding free energy": -0.1}
{"sequence": "CTGTGCACGTGCATGT", "relative binding free energy": -0.18}
{"sequence": "GCGCTCACGTGGGGGT", "relative binding free energy": 0.04}
{"sequence": "TGTATCACGTGATGAA", "relative binding free energy": 0.26}
{"sequence": "GAGGGCACGTGTTGCA", "relative binding free energy": -0.16}
{"sequence": "TGGATCACGTGAGGGC", "relative binding free energy": 0.31}
{"sequence": "GAGGCCACGTGGGCTG", "relative binding free energy": -0.06}
{"sequence": "TGTCCCACGTGGTGAG", "relative binding free energy": -0.07}
{"sequence": "GTAGTCACGTGGGTGT", "relative binding free energy": 0.03}
{"sequence": "TGAGACACGTGTGAGT", "relative binding free energy": 0.22}
